Article PMC11708023
These are yes or no findings as the source states them, for the method shown. In cells and extracts the contact can be indirect. Some entries that bind do so weakly or less than the wild type. For some assays here: Where a sequence is shown, tags or fusion partners need not be part of it.

B1: V5-CDK12 (Drosophila cyclin-dependent kinase 12 with N-terminal V5 tag) (enzyme, UniProt Q9VP22 1-1157)
chain: MHASSAAATALVEYSDVSSEDFSDQEAGDLDADAGKGAGNIKKPKPAPDNQFSKGRLDAKPDKEGYDNYRSRRAEDSSDPVAAGSRQTSSSEATNPREEPSQASNTSKDELWGREIYMSSDSIDTDELEAEMKRQKRKKQKKEKHKHKSKKKSKKRKKKRAKSYSSIDSMSDNDINALLDRRYTPPTAPSKSNERTVSAAPSSFTPHNLKESSSPATPPPVRRPNTNSNYYGESSLETANSALGSNLQVTVTNKQSISNRLRSPPPSSRSSGNGPRFGNSPRTPPPSHYSSSGGGGVGSGSVVRDSRSSRYVNSPHKEDVSAHHRSSHDHGYQGRYSGAGSSSHDTRKVKRLSPELDRYNHQPSTPPHKRRKFSDGREVGLGNFEHSRHHSGKYERYSRDRYSRRSSRSPSVQHSRSRQSPSGGLSSGSNAFRHGGSHKHKYGTTVSSTPSHTTRTSKRASGTGTSGDRYSRSPRTSSRYMESSPPSPVGASGSHHYHHRRSPRMRQRTRGDSRRRSPSSASSESSASRSRSPTSRDLKHKREEYIKKISETSLFAELVKDRHKRQKALKEIIERQEENSNSNSNGALTINDNSSSVDGNTPNAADGRSAPGSGTPAAASTTSNGLQALGSKPDLDLNNIPMPNKQNDSVVSNPASNADVPDSVAQLKQPLLVPPFSASKNNIKPKSLTSLPLPPGMNVLDLAGARSPSPGQKKESDEKNVTSSGSANKSVLNLPMPPVIPGSEELSGDDDVIDSPEDFDAPAVGTVHGHGGGPGTTRQRPVILNRRDSRNNVRDWGERCVDVFEMIAQIGEGTYGQVYKARDHHTNDMVALKKVRLEHEKEGFPITAVREIKILRQLNHRNIVNLHEIVTDKQDAVEFRKDKGSFYLVFEYMDHDLMGLLESGMVDFNEENNASIMKQLLDGLNYCHKKNFLHRDIKCSNILMNNRGKVKLADFGLARLYNADDRERPYTNKVITLWYRPPELLLGEERYGPSIDVWSCGCILGELFVKRPLFQANAEMAQLETISKICGSPVPAVWPNVIKLPLFHTLKQKKTHRRRLREDFEFMPAPALDLLDKMLDLDPDKRITAEDALRSPWLRKINPDEMPTPQLPTWQDCHELWSKKRRRQMREQQESLPPTVIASTKYQQHGATMVGDA
B2: Endogenous CDK12 of S2 cells (enzyme, UniProt Q9VP22 1-1157)
chain: B1 chain

Assays:
[1] = biological target: B2-GFP (FHV B2 with GFP fused to its C-terminus) (Flock House virus) (UniProt P68831); assay: co-IP; S2 cells co-transfected with pMT-V5-CDK12 and B2-GFP, GFP or GFP-tagged B2 mutants; RIPA buffer (50 mM Tris-HCl pH 7.4, 150 mM NaCl, 5 mM MgCl2, 1 mM EDTA, 10% glycerol, 1% NP-40); anti-V5 or anti-GFP on protein A agarose, 4°C overnight; western blot
[2] = biological target: V5-tagged B2 of Flock House virus (FHV) (Flock House virus) (UniProt P68831); assay: co-IP; S2 cells transfected with pMT-B2-V5 for 48 h and infected with FHVΔB2; co-IP with anti-V5; western blot with anti-CDK12

Binder	binding [1]	binding [2]
B1	binds	–
B2	–	binds
